Measurements as given in patent US11155586B2, “Cystine knot scaffold platform” (Genentech, Inc., priority 2015, dated 2021).
Like-named read-outs stand apart in the source and are kept apart here. At least one structure is not confirmed: it was looked up by name or label, or the drawing left a doubt. Positions of bridges follow the written chain, without caps; N, C: chain ends. Residues, ends and D or L forms follow the SMILES beside them.

How the values were obtained:
[1] = biological target: T1, hVEGF-A (8-109) (Homo sapiens, UniProt P15692); assay: SPR binding assay (BIACORE 3000, 37° C.)
T1 sequence (P15692 34-135 isoform P15692-4): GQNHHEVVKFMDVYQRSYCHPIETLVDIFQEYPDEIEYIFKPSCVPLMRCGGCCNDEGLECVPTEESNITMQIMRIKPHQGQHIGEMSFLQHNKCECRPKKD
Method: (§1) Depending on the format of the assay either a streptavidin sensor (SA) or a dextran-coated (CM5) sensor was utilized as described below.
(§2) For use with the SA sensor, VEGF-A was first biotinylated (no more than 2 biotin/VEGF-A) by incubating the protein with EZ-link NHS-PEG4-Biotin (Pierce) in a 1:1.5 molar ratio respectively, in PBS for 2 hours on ice. Reaction was then quenched by addition of 10 molar excess of Glycine pH 8.0 and the sample was buffer exchanged into PBS using an Amicon 0.5 mL 3000 MWCO ultra-centrifugal filters (EMD Millipore). The biotinylation state of the protein was verified by LC-MS analysis. Biotinylated VEGF-A was then captured on the surface until a resonance unit (RU) signal of about ˜400. For immobilization of VEGF-A on CM5 sensor, the surface was first activated with a mixture of N-ethyl-N′-(3-dimethylaminopropyl)carbodiimide hydrochloride and N-hydroxysuccinimide (EDC/NHS) according to the supplier instructions. VEGF-A was then diluted into coupling buffer (0.1 M Acetate Buffer, pH 5.0) and injected until the signal reached about ˜400 RU followed by a wash with 1 M ethanolamine pH 8.0 to quench remaining activated sites.
(§3) Following the capture step, a series of the peptide concentrations were prepared in HBS-EP buffer with matching DMSO concentrations to 0.1% and injected at a flow rate of […]. The resulting sensorgrams were then analyzed using a 1:1 binding model to obtain kinetic data and affinities using Scrubber 2.0 (BioLogic Software).

[2] = biological target: T2, VEGF human 165 (Homo sapiens, UniProt P15692); assay: SPR binding assay; details: human 165, Table 30
T2 sequence (P15692 27-191 isoform P15692-4): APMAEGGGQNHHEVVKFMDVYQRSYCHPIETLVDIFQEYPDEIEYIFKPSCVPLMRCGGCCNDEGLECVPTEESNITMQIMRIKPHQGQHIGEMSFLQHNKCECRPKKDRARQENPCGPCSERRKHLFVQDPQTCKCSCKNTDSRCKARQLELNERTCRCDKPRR
Method: as §1, §2, §3

[3] = biological target: T3, rabbit VEGF-A (Oryctolagus cuniculus, UniProt G1T1L9); assay: SPR binding assay; details: Table 30
T3 sequence (G1T1L9 1-398): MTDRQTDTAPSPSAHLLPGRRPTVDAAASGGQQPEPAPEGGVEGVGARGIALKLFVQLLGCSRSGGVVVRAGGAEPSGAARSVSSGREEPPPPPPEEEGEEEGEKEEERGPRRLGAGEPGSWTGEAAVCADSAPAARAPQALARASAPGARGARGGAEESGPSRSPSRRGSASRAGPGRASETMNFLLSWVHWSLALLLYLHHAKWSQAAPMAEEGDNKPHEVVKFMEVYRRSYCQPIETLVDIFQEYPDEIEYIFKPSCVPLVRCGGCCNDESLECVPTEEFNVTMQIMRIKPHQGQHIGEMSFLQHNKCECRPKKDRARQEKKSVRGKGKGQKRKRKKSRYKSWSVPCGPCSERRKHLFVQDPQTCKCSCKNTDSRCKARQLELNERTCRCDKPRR
Method: as §1, §2, §3

[4] = biological target: T4, rat VEGF-A (Rattus norvegicus, UniProt P16612); assay: SPR binding assay; details: Table 30
T4 sequence (P16612 27-139 limits assumed): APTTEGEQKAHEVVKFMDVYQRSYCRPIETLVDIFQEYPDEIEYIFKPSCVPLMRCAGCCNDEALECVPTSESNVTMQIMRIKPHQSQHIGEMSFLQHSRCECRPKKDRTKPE
Method: as §1, §2, §3

[5] = biological target: T5, VEGF mouse 164 (Mus musculus, UniProt Q00731); assay: SPR binding assay; details: mouse 164, Table 30
T5 sequence (Q00731 27-190 isoform Q00731-2): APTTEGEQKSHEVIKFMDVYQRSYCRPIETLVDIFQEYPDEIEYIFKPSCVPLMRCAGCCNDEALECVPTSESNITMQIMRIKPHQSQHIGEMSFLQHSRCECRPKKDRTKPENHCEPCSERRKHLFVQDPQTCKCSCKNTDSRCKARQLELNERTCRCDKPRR
Method: as §1, §2, §3

[6] = biological target: T6, VEGF-A and KDR (Homo sapiens, UniProt P15692); assay: Competition ELISA, KDR-VEGF interaction; type: binding; details: read-out: KDR-VEGF IC50; Table 28
T6 sequence (P15692 207-395): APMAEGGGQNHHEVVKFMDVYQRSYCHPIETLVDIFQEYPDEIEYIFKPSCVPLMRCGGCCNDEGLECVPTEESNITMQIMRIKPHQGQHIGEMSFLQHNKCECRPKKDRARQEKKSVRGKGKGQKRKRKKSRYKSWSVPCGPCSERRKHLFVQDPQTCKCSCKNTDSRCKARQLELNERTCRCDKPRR
Method: Binding specificity of each peptide was established by competition ELISA. […] After blocking with block buffer (PBS with 0.5% BSA and 0.05% TWEEN®20) for 2 hours at room temperature, the receptor-Fc fusions or biotinylated receptors were serially diluted using assay buffer (PBS with 0.5% BSA and 0.05% TWEEN®20) and incubated for 1 hour at room temperature. […] Competition ELISA was conducted in an identical fashion as described above except after blocking, a mixture of serially diluted peptide containing a constant concentration of receptor-Fc fusion or biotinylated receptor (concentration of receptor was set to EC60) was added and incubated for 1 hour. All recombinant human proteins and antibodies were purchased from R &D Systems (Minneapolis, Minn.).

[7] = biological target: T7, hVEGF-A (Homo sapiens, UniProt P15692); assay: KDR-CHO VEGF assay to determine cellular IC50 (VEGF mediated Tyr phosphorylation of KDR); type: cell-based; details: read-out: Cellular IC50
T7 sequence (P15692 207-395): T6 sequence (P15692 207-395)

## CC[C@H](C)[C@@H]1NC(=O)[C@H](CC(=O)O)NC(=O)[C@@H]2CCCN2C(=O)CNC(=O)[C@@H]2CSSC[C@H](NC(=O)[C@H](CC(=O)O)NC1=O)C(=O)N[C@@H](CC(C)C)C(=O)N[C@@H](C)C(=O)NCC(=O)N[C@H](C(=O)N[C@H](C(=O)N[C@H]1CSSC[C@@H](C(=O)NCC(=O)O)NC(=O)[C@H](CO)NC(=O)[C@H](CC(N)=O)NC(=O)[C@H](Cc3ccc(O)cc3)NC(=O)[C@H](Cc3c[nH]c4ccccc34)NC(=O)[C@H](Cc3c[nH]cn3)NC1=O)C(C)C)CSSC[C@H](NC(=O)CN)C(=O)N[C@@H](CC(=O)O)C(=O)N[C@@H](C(C)C)C(=O)N[C@@H](CCSC)C(=O)N[C@@H](CCC(N)=O)C(=O)N1CCC[C@H]1C(=O)N[C@@H](Cc1ccc(O)cc1)C(=O)N[C@@H](Cc1c[nH]c3ccccc13)C(=O)NCC(=O)N2 [VEGF_CKP9.63.12] (H-GCDVMQPYWGCGPDIDCLAGCVCHWYNSCG-OH; disulfide 2-21, 11-17, 23-29 (inferred); N-terminus and C-terminus assumed)
[1]; hVEGF-A (8-109), Table 29
  Kd: 1.1 nM
[1]; hVEGF-A WT
  Kd: 1.07 nM
[1]; human 8-109, Table 30
  Kd: 3.2 nM
[2]
  Kd: 4.32 nM
[3]
  Kd: 2.54 nM
[4]
  Kd: 5.74 nM
[5]
  Kd: 13.1 nM
[6]
  IC50: 0.7 nM
[7]; Table 28
  IC50: 1.83 nM
[7]; Table 36, loop 3/loop 4 variants
  IC50: 1.83 nM
